This passage reports relative growth results from the supplement of paper PMC9446081.

Hit rate of the full screen: of about 39,000 compounds, about 220 (0.56%) showed activity. The list shows a part of the results.
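Further: static incubation at 37 °C against the wild-type strain, values averaged over two biological replicates.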

The subject of this assay is Escherichia coli K-12 BW25113. Description: relative growth (OD600 normalised to plate interquartile mean) (fraction); higher = less growth inhibition, active = 0.2 or less. The following applies: 50 µM; LB; incubation time: overnight (16-24 h).
On to `COc1ccc(S(=O)(=O)Nc2ccc3c(c2)C(=O)N([C@H](C)CO)C[C@H](C)[C@H](CN(C)Cc2ccncc2)O3)cc1`, for which the relative growth is inactive: 0.982.

As for `C[C@H](CO)N1C[C@H](C)[C@H](CN(C)S(=O)(=O)c2ccc(Cl)cc2)OCc2cnnn2CCCC1=O`, the relative growth was inactive: 0.987.

With `COc1ccc(CN(C)C[C@@H]2OCCCC[C@H](C)Oc3ccc(NC(=O)Cc4ccccc4)cc3C(=O)N([C@@H](C)CO)C[C@@H]2C)cc1`, the relative growth was inactive: 1.01.

As to `C[C@@H]1CN([C@@H](C)CO)C(=O)c2cccc(NS(=O)(=O)c3ccccc3)c2O[C@@H]1CN(C)Cc1ccc(Cl)c(Cl)c1`, the relative growth was inactive: 0.994.

With `C[C@H](CO)N1C[C@H](C)[C@@H](CN(C)Cc2ccccc2)Oc2c(NC(=O)C3CCOCC3)cccc2C1=O`, the relative growth is inactive: 1.

With `C[C@@H]1CN([C@@H](C)CO)S(=O)(=O)c2ccc(C#Cc3cccc(F)c3)cc2O[C@@H]1CN(C)CC1CC1`, the relative growth is inactive: 0.979.

With `CCOc1nc2cccc(C(=O)O)c2n1Cc1ccc(-c2ccccc2-c2nnn[nH]2)cc1`, the relative growth was inactive: 1.03.

Take `Cc1noc(C)c1NC(=O)N(C)C[C@@H]1OCCCC[C@H](C)Oc2ccc(NC(=O)Nc3ccccc3)cc2C(=O)N([C@@H](C)CO)C[C@@H]1C`: the relative growth was inactive: 0.989.

With `C[C@@H]1CN([C@@H](C)CO)C(=O)c2cccc(NC(=O)Nc3ccc4c(c3)OCO4)c2O[C@H]1CN(C)Cc1ccc(C(=O)Nc2ccccc2N)cc1`, the relative growth was inactive: 0.998.

Turning to `NNC(=O)c1c(O)c2c([nH]c1=O)CCCC2`, the relative growth is inactive: 0.95.

For the compound `O=C1CSC(/N=C/c2ccccc2O)=NN1`, the relative growth was inactive: 0.992.

As to `C[C@@H]1CN([C@H](C)CO)C(=O)c2cc(NC(=O)Nc3ccccc3)ccc2O[C@@H](C)CCCCO[C@@H]1CN(C)S(=O)(=O)c1cccs1`, the relative growth is inactive: 1.04.

Turning to `C[C@H](CO)N1C[C@H](C)[C@H](CN(C)Cc2ccc3c(c2)OCO3)Oc2ccc(NC(=O)CCN3CCOCC3)cc2C1=O`, the relative growth was inactive: 0.992.

Regarding `C[C@@H]1CCCCO[C@H](CN(C)Cc2ccccc2)[C@@H](C)CN([C@H](C)CO)C(=O)c2cc(NC(=O)CCC(F)(F)F)ccc2O1`, the relative growth was inactive: 0.978.

As for `COc1ccc2c3c([nH]c2c1)[C@@H](CO)N(C[C@]13CCN(CC1)Cc1ccccc1)C(=O)CN1CCOCC1`, the relative growth is inactive: 1.01.

With `C[C@H](CO)N1C[C@H](C)[C@H](CN(C)S(C)(=O)=O)Oc2ccc(NS(=O)(=O)c3ccc(F)cc3)cc2CC1=O`, the relative growth was inactive: 0.969.

`C[C@@H]1CN([C@@H](C)CO)C(=O)c2cc(NS(=O)(=O)c3ccc(Cl)cc3)ccc2O[C@H]1CN(C)C(=O)Nc1ccc(C(F)(F)F)cc1`: the relative growth is inactive: 0.988.

In the case of `CC(C)CC#Cc1ccc2c(c1)O[C@H](CN(C)C(=O)c1ccccn1)[C@@H](C)CN([C@@H](C)CO)S2(=O)=O`, the relative growth is inactive: 1.01.

For `C[C@H](CO)N1C[C@H](C)[C@H](CN(C)C(=O)CN2CCOCC2)Oc2ncc(/C=C/c3ccccc3)cc2C1=O`, the relative growth was inactive: 0.988.

As to `CN1C(=O)c2cc(NS(C)(=O)=O)ccc2OC[C@@H]2O[C@@H](CC(=O)N3CCOCC3)CC[C@H]21`, the relative growth is inactive: 0.982.

Consider `NNC(=O)c1cccc(C(F)(F)F)n1`, for which the relative growth is inactive: 1.

Regarding `Cc1nnc(C(C)C)n1C1C[C@H]2CC[C@@H](C1)N2CC[C@H](NC(=O)C1CCC(F)(F)CC1)c1ccccc1` (stereo partly drawn), the relative growth was inactive: 0.999.

As to `C[C@@H]1CN([C@H](C)CO)C(=O)c2cccc(NC(=O)Nc3ccc4c(c3)OCO4)c2O[C@@H]1CN(C)S(=O)(=O)c1cn(C)cn1`, the relative growth is inactive: 0.996.

`Cc1noc(C)c1NC(=O)N(C)C[C@@H]1OCCCC[C@@H](C)Oc2ccc(NC(=O)Nc3cccc4ccccc34)cc2C(=O)N([C@H](C)CO)C[C@@H]1C`: the relative growth is inactive: 1.03.

As for `C[C@H]1CN([C@@H](C)CO)C(=O)c2cccc(NC(=O)NC3CCCCC3)c2O[C@@H]1CN(C)Cc1ccc(-c2ccccc2)cc1`, the relative growth was inactive: 0.895.

In the case of `CC(C)NC(=O)Nc1ccc2c(c1)CC(=O)N([C@H](C)CO)C[C@@H](C)[C@@H](CN(C)S(=O)(=O)c1cccs1)O2`, the relative growth is inactive: 1.

For `O=C([C@@H]1[C@@H](CO)[C@@H]2Cn3c(cccc3=O)[C@@H]2N1C(=O)C1CCCC1)N1CCOCC1`, the relative growth is inactive: 0.994.

`CC(/C=C/C(=O)NO)=C\c1ccccc1OCc1cn(-c2cccc(N(S(=O)(=O)c3ccc(C)cc3)S(=O)(=O)c3ccc(C)cc3)c2)nn1`: the relative growth is inactive: 1.03.

With `C[C@H]1CCCCO[C@H](CN(C)Cc2ccccc2)[C@@H](C)CN([C@@H](C)CO)C(=O)c2cc(NC(=O)C3CCCCC3)ccc2O1`, the relative growth was inactive: 1.04.

`C[C@@H]1CCCCO[C@@H](CN(C)S(=O)(=O)c2ccc(Cl)cc2)[C@@H](C)CN([C@H](C)CO)C(=O)c2cc(NC(=O)c3ccccc3)ccc2O1`: the relative growth is inactive: 1.01.

Turning to `Cc1noc(C)c1NC(=O)Nc1ccc2c(c1)CC(=O)N([C@@H](C)CO)C[C@H](C)[C@H](CN(C)Cc1ccc(Cl)c(Cl)c1)O2`, the relative growth is inactive: 0.867.

For the compound `Cc1noc(C)c1NC(=O)Nc1cccc2c1O[C@H](CN(C)C(=O)NC(C)C)[C@H](C)CN([C@H](C)CO)C2=O`, the relative growth is inactive: 1.03.

For the compound `O=C(C[C@@H]1C=C[C@@H](NS(=O)(=O)c2ccc(F)cc2)[C@H](CO)O1)NCCN1CCCCC1`, the relative growth is inactive: 0.993.

As to `CNC[C@@H]1OCCCC[C@H](C)Oc2ccc(NS(=O)(=O)c3c(C)noc3C)cc2C(=O)N([C@@H](C)CO)C[C@@H]1C`, the relative growth was inactive: 0.981.

Regarding `COCC(=O)Nc1ccc2c(c1)OC[C@H](C)N(Cc1ccccc1OC)C[C@@H](C)[C@@H](OC)CN(C)C2=O`, the relative growth was inactive: 1.01.

Consider `COc1ccccc1CN1C(=O)c2ccccc2[C@](Cc2ccccc2I)(C(=O)NCC(C)C)[C@@H]1c1ccc(CO)cc1`, for which the relative growth is inactive: 0.987.

On to `C[C@@H]1CN([C@H](C)CO)C(=O)c2cc(NC(=O)Cc3ccccc3)ccc2O[C@@H]1CN(C)S(=O)(=O)c1cccs1`, for which the relative growth is inactive: 0.987.

As to `Cc1cccc(S(=O)(=O)N2C[C@H](O)COC[C@@H]3O[C@@H](CC(=O)NCCCN4CCOCC4)CC[C@H]32)c1`, the relative growth was inactive: 1.

Regarding `COc1ccc(CN(C)C[C@@H]2OCCCC[C@H](C)Oc3ccc(NS(=O)(=O)c4ccc(Cl)cc4)cc3C(=O)N([C@@H](C)CO)C[C@@H]2C)cc1`, the relative growth is inactive: 0.942.

With `O=C1CN(S(=O)(=O)Cc2ccccc2)C[C@H]2[C@@H](c3ccc(C#Cc4ccc(F)cc4)cc3)[C@@H](CO)N12`, the relative growth is inactive: 1.04.

Consider `O=C(O)C[C@@H]1C=C[C@@H](NC(=O)c2ccncc2)[C@H](CO)O1`, for which the relative growth was inactive: 0.995.

For `CC(=O)N1C[C@@H](NC(=O)c2nccn2C)[C@@H]2OCCC[C@@H]21`, the relative growth is inactive: 0.973.

Turning to `CC(C)(C)[S@@](=O)N1Cc2cc(C(=O)NC3CCC3)nc(-c3cccc(-c4ccccc4F)c3)c2[C@H]1CCO`, the relative growth was inactive: 1.04.

For `CC[N+](CC)(CC)CCOc1ccc(C=Cc2ccccc2)cc1`, the relative growth was inactive: 0.983.

Regarding `C[C@H](CO)N1C[C@H](C)[C@@H](CN(C)S(=O)(=O)c2ccc(F)cc2)Oc2c(NS(=O)(=O)c3ccccc3)cccc2C1=O`, the relative growth was inactive: 0.992.

Take `CC(C)NC(=O)N(C)C[C@H]1Oc2ccc(NC(=O)Nc3ccc4c(c3)OCO4)cc2C(=O)N([C@@H](C)CO)C[C@H]1C`: the relative growth was inactive: 0.977.

As for `C[C@H](CO)N1C[C@H](C)[C@@H](CN(C)C(=O)C2CCCCC2)Oc2cc(-c3cncnc3)ccc2S1(=O)=O`, the relative growth is inactive: 0.987.

As to `NCC[C@H]1CC[C@@H](NC(=O)C2CC2)[C@H](CO)O1`, the relative growth is inactive: 0.989.

For `CCS(=O)(=O)Nc1ccc2c(c1)C(=O)N(C)[C@H]1CC[C@H](CC(=O)N[C@H]3CCN(Cc4ccccc4)C3)O[C@@H]1CO2`, the relative growth was inactive: 1.01.

`C[C@@H]1CN([C@@H](C)CO)C(=O)Cc2cc(NC(=O)c3ccncc3)ccc2O[C@@H]1CN(C)S(=O)(=O)c1ccc(F)cc1`: the relative growth is inactive: 1.01.

On to `O=C(O)C[C@@H]1C=C[C@H](NC(=O)c2ccncc2)[C@@H](CO)O1`, for which the relative growth was inactive: 1.02.

Consider `O=C(CN1CCOCC1)N[C@H]1CC[C@H](CCNS(=O)(=O)c2ccccc2F)O[C@H]1CO`, for which the relative growth is inactive: 0.999.

`COc1ccccc1C#Cc1ccc2c(c1)O[C@H](CN(C)Cc1cccnc1)[C@@H](C)CN([C@@H](C)CO)S2(=O)=O`: the relative growth is inactive: 1.03.

Consider `C/N=C1\S[C@@H](CC(=O)NC(C)C)C(=O)N1C`, for which the relative growth was inactive: 0.997.

Take `Cn1c(=O)cnn(CCCCN2CCN(c3ncccn3)CC2)c1=O`: the relative growth is inactive: 0.987.

On to `C[C@@H]1CN([C@H](C)CO)C(=O)c2cc(NS(=O)(=O)c3ccc(Cl)cc3)ccc2O[C@@H]1CN(C)Cc1ccc(Cl)c(Cl)c1`, for which the relative growth is inactive: 0.98.

Consider `CCC(=O)Nc1cnc(OC)nc1OC`, for which the relative growth is inactive: 1.01.

For `C[C@@H]1CCCCO[C@@H](CN(C)C(=O)Nc2cccc3ccccc23)[C@H](C)CN([C@@H](C)CO)C(=O)c2cc(N(C)C)ccc2O1`, the relative growth was inactive: 1.01.

Consider `C[C@@H]1CN([C@H](C)CO)S(=O)(=O)c2ccc(-c3ccccc3F)cc2O[C@@H]1CN(C)Cc1cncnc1`, for which the relative growth was inactive: 1.01.

In the case of `C[C@@H]1CCCCO[C@@H](CN(C)Cc2ccc(C(=O)O)cc2)[C@H](C)CN([C@H](C)CO)C(=O)c2cc(NC(=O)Nc3ccc4c(c3)OCO4)ccc2O1`, the relative growth was inactive: 0.99.

On to `CCS(=O)(=O)N[C@@H]1CC[C@@H](CC(=O)NCc2ccccn2)O[C@@H]1CO`, for which the relative growth was inactive: 0.975.

With `c1ccc(-c2ccc(C(c3ccccc3)n3ccnc3)cc2)cc1` (stereo not drawn), the relative growth is inactive: 0.953.

With `Oc1c(Cl)cc(Cl)c2cccnc12`, the relative growth was active: 0.111.
